# Source: PMC4336329 (PLoS ONE, 2015)
# Among all 310,000 compounds or so, about 14,000 (4.5%) showed an effect of 50% or more. The effect is printed as a negative number. Some of the results follow.
# Target: human ether-à-go-go-related gene (hERG) potassium channel (human, UniProt Q12809)
# Test: primary screen, population patch clamp on CHO cells stably expressing hERG
# 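Note: peak tail current of the secondary pulse compared with the same well before compound.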
# human ether-à-go-go-related gene (hERG) potassium channel, sequence (Q12809 whole entry, looked up): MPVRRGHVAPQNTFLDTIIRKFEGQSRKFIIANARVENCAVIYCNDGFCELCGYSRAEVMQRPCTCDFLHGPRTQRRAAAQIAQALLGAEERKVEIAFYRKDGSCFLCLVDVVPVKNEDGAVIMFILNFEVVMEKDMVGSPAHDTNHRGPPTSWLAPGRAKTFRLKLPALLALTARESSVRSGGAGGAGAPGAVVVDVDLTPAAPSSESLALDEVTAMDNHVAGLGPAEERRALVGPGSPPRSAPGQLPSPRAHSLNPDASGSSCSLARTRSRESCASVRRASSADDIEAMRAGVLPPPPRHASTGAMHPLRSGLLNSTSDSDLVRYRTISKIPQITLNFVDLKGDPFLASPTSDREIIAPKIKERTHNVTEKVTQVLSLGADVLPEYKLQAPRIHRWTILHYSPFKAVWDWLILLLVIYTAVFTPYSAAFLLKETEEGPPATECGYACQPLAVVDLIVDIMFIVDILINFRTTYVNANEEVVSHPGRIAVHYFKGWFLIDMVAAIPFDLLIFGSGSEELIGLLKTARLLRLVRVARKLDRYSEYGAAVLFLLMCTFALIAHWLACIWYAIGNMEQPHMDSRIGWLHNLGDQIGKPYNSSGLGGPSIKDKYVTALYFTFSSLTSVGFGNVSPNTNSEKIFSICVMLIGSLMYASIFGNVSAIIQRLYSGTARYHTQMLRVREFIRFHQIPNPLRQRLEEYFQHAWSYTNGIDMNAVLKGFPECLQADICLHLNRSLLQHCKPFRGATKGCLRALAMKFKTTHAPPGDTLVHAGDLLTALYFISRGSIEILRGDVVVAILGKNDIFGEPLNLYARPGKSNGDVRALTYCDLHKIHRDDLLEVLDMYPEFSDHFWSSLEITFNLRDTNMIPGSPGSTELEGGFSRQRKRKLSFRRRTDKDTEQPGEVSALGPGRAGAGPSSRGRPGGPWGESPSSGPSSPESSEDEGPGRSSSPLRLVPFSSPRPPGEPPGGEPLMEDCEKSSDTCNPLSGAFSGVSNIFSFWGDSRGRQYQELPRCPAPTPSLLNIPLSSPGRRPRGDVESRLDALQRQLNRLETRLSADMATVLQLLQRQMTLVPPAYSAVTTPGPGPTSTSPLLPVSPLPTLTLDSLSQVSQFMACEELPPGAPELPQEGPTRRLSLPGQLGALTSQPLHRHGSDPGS
row,Structure (SMILES),"hERG current change (%, negative = inhibition) at 10uM [%]"
1,CCN(Cc1ccccc1)C(=O)C1CCN(c2ncnc3c2nc2n3CCCCC2)CC1,-41.7
2,Cc1cccc(Cn2c(C)c(C)c3cc(C(=O)NCCN4CCOCC4)ccc32)c1,-26.6
3,CCN1CCCC1CNC(=O)C(=O)NC(C)c1ccccc1 (centres unmarked),13
4,CC(C)C(=O)Nc1nnc(Cc2ccccc2)s1,-2.21
5,Cc1[nH]n2c(=O)cc(C(C)(C)C)nc2c1-c1ccccc1,-10.6
6,COc1ccc(NC(=O)CCNC(=O)c2ccco2)cc1Cl,7.41
7,Cc1ccccc1NC(=O)c1cccc2nc3ccccc3nc12,13.8
8,CCCOC(=O)/C(=C\C=C\c1ccccc1)NC(=O)c1ccccc1,-7.78
9,CCC1c2ccc(C)n2CCN1C(=O)Nc1ccc(F)cc1 (centres unmarked),-20
10,Clc1ccccc1Cn1nnc2c(Nc3ccccc3)ncnc21,-0.775
11,COCCCNC(=O)c1cn(CCOC)c(=O)c2c1c1ccccc1n2C,12.9
12,O=C(NCc1ccc(F)cc1)C1CCCN1S(=O)(=O)c1ccccc1C(F)(F)F (centres unmarked),-13.4
13,NC(=O)C1CCN(C(=O)c2cc3c(s2)CCCCC3)CC1,-6.51
14,Cc1cc(SCC(=O)c2cccs2)nc2ccccc12,-4.07
15,C=CCC(NCc1ccccc1)c1ccc(OC)cc1.O=C(O)C(=O)O (centres unmarked),6.43
16,CC/C=C\C/C=C\C/C=C\CCCCCCCC(=O)O,8.25
17,C#Cc1ccc([C@H]2C=C(C(=O)N3CCN(Cc4ccccc4)CC3)O[C@@H](OCC)[C@@H]2CCCO)cc1,-19.6
18,C/C(CC(=O)C(F)(F)F)=N\NC(=O)/C(C#N)=C/N(C)C,9.1
19,Cc1ccsc1CNS(=O)(=O)c1ccc(F)cc1,-13.3
20,Cc1[nH]ccc(=O)c1OCc1ccccc1,20

row,Structure (SMILES),"hERG current change (%, negative = inhibition) at 10uM [%]"
1,Cc1ccc(C(=O)c2cc3ccccc3o2)cc1C,9.07
2,CCOC(=O)N1CCC(Nc2nc3ccccc3nc2NS(=O)(=O)c2ccc(Cl)cc2)CC1,-24.4
3,CCOc1ccc(NC(=O)CSc2n[nH]c(=O)n2-c2ccccc2)cc1,-2.15
4,Cc1ccc(/C=C/C(=O)Nc2nnc(C)s2)o1,8.47
5,COc1ccccc1C1C(C(=O)c2cc3ccccc3o2)=C(O)C(=O)N1CCN(C)C (centres unmarked),14.5
6,O=C(Nc1cc(=O)[nH]c2ncnn12)c1ccccc1,-4.79
7,CC(=O)N1CCN(c2ccc(NC(=O)c3ccc(C(C)(C)C)cc3)cc2)CC1,0.16
8,COc1ccc(N(CC(=O)NCCSc2ccccn2)S(C)(=O)=O)cc1,5.77
9,O=C(Cc1ccc(O)cc1)NC1CCCCCC1,21.5
10,NC(=O)C1(N2CCCCC2)CCN(C(=O)CSc2nc3ccccc3o2)CC1,-4.85
11,Cn1c(Cn2c(=O)sc3ccccc32)nnc1SCc1cccnc1,-23.4
12,COc1ccc(N2C(=O)CC(NC34CC5CC(CC(C5)C3)C4)C2=O)c(OC)c1 (centres unmarked),-3.76
13,COc1ccc2c(c1)c1nc(SCC(C)C)n(CCO)c(=O)c1n2C,5.8
14,CS(=O)(=O)N(Cc1ccc(Cl)cc1)c1ccc(C(=O)NCCSCc2ccco2)cc1,-8.51
15,c1ccc2nc(-c3nc4ccccc4o3)ccc2c1,7.95
16,Cc1sc(NC(=O)/C=C/c2ccco2)c(C(=O)OC(C)C)c1C,-1.79
17,NC(N)=N/N=C/c1cccc([N+](=O)[O-])c1O,25
18,Cc1sc2ncnc(N3CCN(S(=O)(=O)c4ccc(F)cc4)CC3)c2c1C,-50.9
19,COc1ccccc1CC(=O)NCCc1ccc(S(N)(=O)=O)cc1,7.96
20,N#CNC(N)=Nc1cccc(Cl)c1,12.1

row,Structure (SMILES),"hERG current change (%, negative = inhibition) at 10uM [%]"
1,O=C1c2cccc3cc(Br)cc(c23)C(=O)N1Nc1ccc(Br)cc1,9.63
2,CSc1ncccc1C(=O)OCC(=O)N(C)c1c(N)n(Cc2ccccc2)c(=O)[nH]c1=O,-29.7
3,CCN1CCN(C(=O)CCc2nnc(CCc3c[nH]c4ccccc34)o2)[C@@H](C)C1=O,-0.775
4,O=C(c1ccco1)n1nc(-c2ccc(Cl)cc2)nc1NCc1ccco1,3.05
5,FC(F)(F)c1ccc(N2CCOCC2)c(Nc2nc3ccccc3n3cnnc23)c1,7.53
6,O=C(Nc1cccc2cccnc12)c1ccc(Br)cc1Br,21.6
7,CC/C(=N\N1CCCCC1)c1c(O)[nH]c(=O)[nH]c1=O,6.97
8,CCc1cccc(CC)c1NC(=O)CCCSc1nc2ccccc2s1,2.02
9,COc1cccc(NC(=O)CN(C)CC(=O)NC(C)c2ccccc2)c1 (centres unmarked),-8.48
10,Cc1nn(Cc2ccc(F)cc2)c(C)c1NC(=O)c1cc2ncc(Br)cn2n1,-15.1
11,O=C(Nc1c(Cl)cccc1Cl)C1CCN(C(=O)c2cccs2)CC1,6.5
12,CCOC(=O)C1(Cc2ccc(Cl)cc2)CCN(CCCn2cccn2)CC1,-74.8
13,Cc1ccc(NC(=O)CSC2=NN3CCCC(=O)N=C3S2)cc1Cl,6.27
14,C/C(=N\NC(=O)CNC(=O)c1cccs1)c1ccc(Cl)c(Cl)c1,-2.25
15,CCC(C)SCc1nc2ccccc2[nH]1 (centres unmarked),-6.29
16,CC(=O)c1ccc(S(=O)(=O)N2CCC(NC(=O)Nc3cccc(F)c3)CC2)cc1,3.31
17,CCNC(=O)C12CCC(C)(C(=O)O1)C2(C)C (centres unmarked),2.38
18,CCN(CC)C(=O)c1sc(NC(=O)c2ccc(Br)o2)c(C(=O)OC)c1C,-6.13
19,C#C[C@@]1(O)CCC2C3CCC4=C/C(=N/OCC(=O)NC(C(=O)NC(CC(C)C)C(=O)O)C(C)C)CC[C@]4(C)C3CC[C@@]21C (some centres unmarked),-3.07
